Measured values as given in the supplement of paper PMC12230231.

system: SIVsab (simian immunodeficiency virus of sabaeus monkeys), single-cycle GFP reporter, in CRFK cells; test: enrichment among infected cells over input (fold); higher = weaker restriction; conditions: library: human / rhesus combinations
Description: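 Pools of CRFK cells expressing variants of the TRIM5α v1 loop were challenged with the single-cycle reporter, sorted by GFP and sequenced; mean of two replicates.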

| Sequence | enrichment |
| --- | --- |
| MASGILLNVKEEVTCPICLELLTEPLSLHCGHSFCQACITANHKKSMLYKEGERSCPVCRISYQPENIQPNRHVANIVEKLREVKLSPEEGQKVDHCARHGEKLLLFCQEDSKVICWLCERSQEHRGHHTFLMEEVAQEYHVKLQTALEMLRQKQQEAEKLEADIREEKASWKIQIDYDKTNVSADFEQLREILDWEESNELQNLEKEEEDILKSLTKSETEMVQQTQYMRELISELEHRLQGSMMDLLQGVDGIIKRIENMTLKKPKTFHKNQRRVFRAPDLKGMLDMFRELTDARRYWVDVTLAPNNISHAVIAEDKRQVSSRNPQIMYQARGTRFTFQSFVNFNYCTGVLGSQSITSGKHYWEVDVSKKSAWILGVCAGFQSDAMYNIEQNENYQPKYGYWVIGLQEGVKYSVFQDGSSHTPFAPFIVPLSVIICPDRVGVFVDYEACTVSFFNITNHGFLIYKFSQCSFSKPVFPYLNPRKCTVPMTLCSPSS [rhesus TRIM5α, 332-344 = QARGTRFTFQSFV] | 0.98 ± 0.04 |
| MASGILLNVKEEVTCPICLELLTEPLSLHCGHSFCQACITANHKKSMLYKEGERSCPVCRISYQPENIQPNRHVANIVEKLREVKLSPEEGQKVDHCARHGEKLLLFCQEDSKVICWLCERSQEHRGHHTFLMEEVAQEYHVKLQTALEMLRQKQQEAEKLEADIREEKASWKIQIDYDKTNVSADFEQLREILDWEESNELQNLEKEEEDILKSLTKSETEMVQQTQYMRELISELEHRLQGSMMDLLQGVDGIIKRIENMTLKKPKTFHKNQRRVFRAPDLKGMLDMFRELTDARRYWVDVTLAPNNISHAVIAEDKRQVSSRNPQIMYQAPGTRYTFQSFTNFNYCTGVLGSQSITSGKHYWEVDVSKKSAWILGVCAGFQSDAMYNIEQNENYQPKYGYWVIGLQEGVKYSVFQDGSSHTPFAPFIVPLSVIICPDRVGVFVDYEACTVSFFNITNHGFLIYKFSQCSFSKPVFPYLNPRKCTVPMTLCSPSS [rhesus TRIM5α, 332-344 = QAPGTRYTFQSFT] | 1.8 ± 0.69 |
| MASGILLNVKEEVTCPICLELLTEPLSLHCGHSFCQACITANHKKSMLYKEGERSCPVCRISYQPENIQPNRHVANIVEKLREVKLSPEEGQKVDHCARHGEKLLLFCQEDSKVICWLCERSQEHRGHHTFLMEEVAQEYHVKLQTALEMLRQKQQEAEKLEADIREEKASWKIQIDYDKTNVSADFEQLREILDWEESNELQNLEKEEEDILKSLTKSETEMVQQTQYMRELISELEHRLQGSMMDLLQGVDGIIKRIENMTLKKPKTFHKNQRRVFRAPDLKGMLDMFRELTDARRYWVDVTLAPNNISHAVIAEDKRQVSSRNPQIMYGARGTLFPSLTNFNYCTGVLGSQSITSGKHYWEVDVSKKSAWILGVCAGFQSDAMYNIEQNENYQPKYGYWVIGLQEGVKYSVFQDGSSHTPFAPFIVPLSVIICPDRVGVFVDYEACTVSFFNITNHGFLIYKFSQCSFSKPVFPYLNPRKCTVPMTLCSPSS [rhesus TRIM5α, 332-344 = GARGTLFPSLT] | 1.08 ± 0.09 |
| MASGILLNVKEEVTCPICLELLTEPLSLHCGHSFCQACITANHKKSMLYKEGERSCPVCRISYQPENIQPNRHVANIVEKLREVKLSPEEGQKVDHCARHGEKLLLFCQEDSKVICWLCERSQEHRGHHTFLMEEVAQEYHVKLQTALEMLRQKQQEAEKLEADIREEKASWKIQIDYDKTNVSADFEQLREILDWEESNELQNLEKEEEDILKSLTKSETEMVQQTQYMRELISELEHRLQGSMMDLLQGVDGIIKRIENMTLKKPKTFHKNQRRVFRAPDLKGMLDMFRELTDARRYWVDVTLAPNNISHAVIAEDKRQVSSRNPQIMYQARGTLYTFPSLVNFNYCTGVLGSQSITSGKHYWEVDVSKKSAWILGVCAGFQSDAMYNIEQNENYQPKYGYWVIGLQEGVKYSVFQDGSSHTPFAPFIVPLSVIICPDRVGVFVDYEACTVSFFNITNHGFLIYKFSQCSFSKPVFPYLNPRKCTVPMTLCSPSS [rhesus TRIM5α, 332-344 = QARGTLYTFPSLV] | 1.71 ± 0.61 |
| MASGILLNVKEEVTCPICLELLTEPLSLHCGHSFCQACITANHKKSMLYKEGERSCPVCRISYQPENIQPNRHVANIVEKLREVKLSPEEGQKVDHCARHGEKLLLFCQEDSKVICWLCERSQEHRGHHTFLMEEVAQEYHVKLQTALEMLRQKQQEAEKLEADIREEKASWKIQIDYDKTNVSADFEQLREILDWEESNELQNLEKEEEDILKSLTKSETEMVQQTQYMRELISELEHRLQGSMMDLLQGVDGIIKRIENMTLKKPKTFHKNQRRVFRAPDLKGMLDMFRELTDARRYWVDVTLAPNNISHAVIAEDKRQVSSRNPQIMYGAPGTRFTFQTLVNFNYCTGVLGSQSITSGKHYWEVDVSKKSAWILGVCAGFQSDAMYNIEQNENYQPKYGYWVIGLQEGVKYSVFQDGSSHTPFAPFIVPLSVIICPDRVGVFVDYEACTVSFFNITNHGFLIYKFSQCSFSKPVFPYLNPRKCTVPMTLCSPSS [rhesus TRIM5α, 332-344 = GAPGTRFTFQTLV] | 1.26 ± 0.47 |
| MASGILLNVKEEVTCPICLELLTEPLSLHCGHSFCQACITANHKKSMLYKEGERSCPVCRISYQPENIQPNRHVANIVEKLREVKLSPEEGQKVDHCARHGEKLLLFCQEDSKVICWLCERSQEHRGHHTFLMEEVAQEYHVKLQTALEMLRQKQQEAEKLEADIREEKASWKIQIDYDKTNVSADFEQLREILDWEESNELQNLEKEEEDILKSLTKSETEMVQQTQYMRELISELEHRLQGSMMDLLQGVDGIIKRIENMTLKKPKTFHKNQRRVFRAPDLKGMLDMFRELTDARRYWVDVTLAPNNISHAVIAEDKRQVSSRNPQIMYQARGTRFTFQTFVNFNYCTGVLGSQSITSGKHYWEVDVSKKSAWILGVCAGFQSDAMYNIEQNENYQPKYGYWVIGLQEGVKYSVFQDGSSHTPFAPFIVPLSVIICPDRVGVFVDYEACTVSFFNITNHGFLIYKFSQCSFSKPVFPYLNPRKCTVPMTLCSPSS [rhesus TRIM5α, 332-344 = QARGTRFTFQTFV] | 1.39 ± 1.3 |
| MASGILLNVKEEVTCPICLELLTEPLSLHCGHSFCQACITANHKKSMLYKEGERSCPVCRISYQPENIQPNRHVANIVEKLREVKLSPEEGQKVDHCARHGEKLLLFCQEDSKVICWLCERSQEHRGHHTFLMEEVAQEYHVKLQTALEMLRQKQQEAEKLEADIREEKASWKIQIDYDKTNVSADFEQLREILDWEESNELQNLEKEEEDILKSLTKSETEMVQQTQYMRELISELEHRLQGSMMDLLQGVDGIIKRIENMTLKKPKTFHKNQRRVFRAPDLKGMLDMFRELTDARRYWVDVTLAPNNISHAVIAEDKRQVSSRNPQIMYGAPGTRFTFPSFVNFNYCTGVLGSQSITSGKHYWEVDVSKKSAWILGVCAGFQSDAMYNIEQNENYQPKYGYWVIGLQEGVKYSVFQDGSSHTPFAPFIVPLSVIICPDRVGVFVDYEACTVSFFNITNHGFLIYKFSQCSFSKPVFPYLNPRKCTVPMTLCSPSS [rhesus TRIM5α, 332-344 = GAPGTRFTFPSFV] | 0.951 ± 0.013 |
| MASGILLNVKEEVTCPICLELLTEPLSLHCGHSFCQACITANHKKSMLYKEGERSCPVCRISYQPENIQPNRHVANIVEKLREVKLSPEEGQKVDHCARHGEKLLLFCQEDSKVICWLCERSQEHRGHHTFLMEEVAQEYHVKLQTALEMLRQKQQEAEKLEADIREEKASWKIQIDYDKTNVSADFEQLREILDWEESNELQNLEKEEEDILKSLTKSETEMVQQTQYMRELISELEHRLQGSMMDLLQGVDGIIKRIENMTLKKPKTFHKNQRRVFRAPDLKGMLDMFRELTDARRYWVDVTLAPNNISHAVIAEDKRQVSSRNPQIMYQARGTRFTFPSFTNFNYCTGVLGSQSITSGKHYWEVDVSKKSAWILGVCAGFQSDAMYNIEQNENYQPKYGYWVIGLQEGVKYSVFQDGSSHTPFAPFIVPLSVIICPDRVGVFVDYEACTVSFFNITNHGFLIYKFSQCSFSKPVFPYLNPRKCTVPMTLCSPSS [rhesus TRIM5α, 332-344 = QARGTRFTFPSFT] | 1.27 ± 0.65 |
| MASGILLNVKEEVTCPICLELLTEPLSLHCGHSFCQACITANHKKSMLYKEGERSCPVCRISYQPENIQPNRHVANIVEKLREVKLSPEEGQKVDHCARHGEKLLLFCQEDSKVICWLCERSQEHRGHHTFLMEEVAQEYHVKLQTALEMLRQKQQEAEKLEADIREEKASWKIQIDYDKTNVSADFEQLREILDWEESNELQNLEKEEEDILKSLTKSETEMVQQTQYMRELISELEHRLQGSMMDLLQGVDGIIKRIENMTLKKPKTFHKNQRRVFRAPDLKGMLDMFRELTDARRYWVDVTLAPNNISHAVIAEDKRQVSSRNPQIMYGARGTLFTFQTLTNFNYCTGVLGSQSITSGKHYWEVDVSKKSAWILGVCAGFQSDAMYNIEQNENYQPKYGYWVIGLQEGVKYSVFQDGSSHTPFAPFIVPLSVIICPDRVGVFVDYEACTVSFFNITNHGFLIYKFSQCSFSKPVFPYLNPRKCTVPMTLCSPSS [rhesus TRIM5α, 332-344 = GARGTLFTFQTLT] | 1.15 ± 0.49 |
| MASGILLNVKEEVTCPICLELLTEPLSLHCGHSFCQACITANHKKSMLYKEGERSCPVCRISYQPENIQPNRHVANIVEKLREVKLSPEEGQKVDHCARHGEKLLLFCQEDSKVICWLCERSQEHRGHHTFLMEEVAQEYHVKLQTALEMLRQKQQEAEKLEADIREEKASWKIQIDYDKTNVSADFEQLREILDWEESNELQNLEKEEEDILKSLTKSETEMVQQTQYMRELISELEHRLQGSMMDLLQGVDGIIKRIENMTLKKPKTFHKNQRRVFRAPDLKGMLDMFRELTDARRYWVDVTLAPNNISHAVIAEDKRQVSSRNPQIMYGARGTRFTFQSLTNFNYCTGVLGSQSITSGKHYWEVDVSKKSAWILGVCAGFQSDAMYNIEQNENYQPKYGYWVIGLQEGVKYSVFQDGSSHTPFAPFIVPLSVIICPDRVGVFVDYEACTVSFFNITNHGFLIYKFSQCSFSKPVFPYLNPRKCTVPMTLCSPSS [rhesus TRIM5α, 332-344 = GARGTRFTFQSLT] | 1.4 ± 0.54 |
| MASGILLNVKEEVTCPICLELLTEPLSLHCGHSFCQACITANHKKSMLYKEGERSCPVCRISYQPENIQPNRHVANIVEKLREVKLSPEEGQKVDHCARHGEKLLLFCQEDSKVICWLCERSQEHRGHHTFLMEEVAQEYHVKLQTALEMLRQKQQEAEKLEADIREEKASWKIQIDYDKTNVSADFEQLREILDWEESNELQNLEKEEEDILKSLTKSETEMVQQTQYMRELISELEHRLQGSMMDLLQGVDGIIKRIENMTLKKPKTFHKNQRRVFRAPDLKGMLDMFRELTDARRYWVDVTLAPNNISHAVIAEDKRQVSSRNPQIMYGARGTLFQTLTNFNYCTGVLGSQSITSGKHYWEVDVSKKSAWILGVCAGFQSDAMYNIEQNENYQPKYGYWVIGLQEGVKYSVFQDGSSHTPFAPFIVPLSVIICPDRVGVFVDYEACTVSFFNITNHGFLIYKFSQCSFSKPVFPYLNPRKCTVPMTLCSPSS [rhesus TRIM5α, 332-344 = GARGTLFQTLT] | 0.478 ± 0.23 |
| MASGILLNVKEEVTCPICLELLTEPLSLHCGHSFCQACITANHKKSMLYKEGERSCPVCRISYQPENIQPNRHVANIVEKLREVKLSPEEGQKVDHCARHGEKLLLFCQEDSKVICWLCERSQEHRGHHTFLMEEVAQEYHVKLQTALEMLRQKQQEAEKLEADIREEKASWKIQIDYDKTNVSADFEQLREILDWEESNELQNLEKEEEDILKSLTKSETEMVQQTQYMRELISELEHRLQGSMMDLLQGVDGIIKRIENMTLKKPKTFHKNQRRVFRAPDLKGMLDMFRELTDARRYWVDVTLAPNNISHAVIAEDKRQVSSRNPQIMYGARGTLFPSFVNFNYCTGVLGSQSITSGKHYWEVDVSKKSAWILGVCAGFQSDAMYNIEQNENYQPKYGYWVIGLQEGVKYSVFQDGSSHTPFAPFIVPLSVIICPDRVGVFVDYEACTVSFFNITNHGFLIYKFSQCSFSKPVFPYLNPRKCTVPMTLCSPSS [rhesus TRIM5α, 332-344 = GARGTLFPSFV] | 0.226 ± 0.015 |

± gives the standard deviation of the averaged measurements. Restriction of a single-cycle SIVsab GFP reporter by TRIM5α v1-loop variants in CRFK cells. Human variants: read share among cells still uninfected after two challenges over input, higher = gained restriction. Rhesus variants: share among infected cells over input, higher = lost restriction. Reporter dose not given per row. No active / inactive call per row; the paper calls a change when both replicates lie above its controls (mean + 2 SD of stop or wild-type variants, or the top frameshift score). Residues outside the varied loop are taken from Swiss-Prot. The paper reads the human single-substitution scores as noise; they and the rhesus combinations repeat poorly (rank correlation 0.3 to 0.4), indel scores repeat only for the top variants, rhesus substitutions well (0.9).
